{
  "source": "PubChem BioAssay AID1458",
  "about": "(National Center for Advancing Translational Sciences (NCATS), 2008)",
  "note": "The campaign covered roughly 210,000 compounds. About 5,900 (2.8%) were called active. This list was built around the results that the source calls inconclusive (neither active nor inactive); the mix of calls is not that of the screen. The call rests on the fitted dose curve; in most records, active means well fitted activation curve with a large enough effect; inconclusive means small, poorly fitted or top-dose-only effect; inactive means no such curve, though single readings can be large or run the other way. Potencies beside an inconclusive call are fits to weak or partial responses and may not hold up. Potency means the concentration at half of the fitted maximal effect; tags describe the fitted curve by direction and shape.",
  "data": [
    {"experiment": "qHTS Assay for Enhancers of SMN2 Splice Variant Expression; further: nearly all actives have a fitted effect of over 55% in size", "details": "HEK293 SMN2-luciferase splicing reporter, luminescence, 30-36 h; series mostly up to 46.1 µM", "method_in_brief": "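HEK293 cells carry an SMN2 minigene-luciferase reporter in which exon 7 inclusion puts luciferase in frame. Cells were seeded at 2000 cells/well, attached for 10-12 hours, then exposed to compounds for 30-36 hours at 37C before ONE-Glo luminescence.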", "values": [
      {"smiles": "COc1ccc(-n2nc(C(=O)c3cccs3)cc(-c3nc4ccccc4[nH]3)c2=N)cc1", "Potency": "inconclusive: 2.51 µM [activator, partial curve]"},
      {"smiles": "Nc1cccnc1Sc1ccc([N+](=O)[O-])cn1", "Potency": "inactive"},
      {"smiles": "Cc1nc2ccc(NC(=O)c3ccc(Br)o3)cc2s1", "Potency": "active: 11.2 µM"},
      {"smiles": "O=C(Nc1nc(-c2ccc(Cl)s2)cs1)c1ccco1", "Potency": "inconclusive: 12.6 µM [activator, partial curve, poor fit]"},
      {"smiles": "Cc1ccc2cc(CN(Cc3cccs3)Cc3nnnn3CC3CCCO3)c(=O)[nH]c2c1", "note": "(configuration not stated)", "Potency": "inconclusive: 6.31 µM [activator, full curve]"},
      {"smiles": "N#Cc1nc(Cc2ccccc2)oc1NCCc1ccccc1", "Potency": "inconclusive: 12.6 µM [activator, partial curve]"},
      {"smiles": "Cc1nnc(NC(=O)C2CCN(S(=O)(=O)c3ccc(Cl)cc3)CC2)s1", "Potency": "inconclusive: 2.82 µM [activator, full curve, poor fit]"},
      {"smiles": "CCOC(=O)N1CCN(C(=O)C2CCN(Cc3ccc(OC)cc3OC)CC2)CC1", "Potency": "inconclusive: 1.12 µM [activator, single point]"},
      {"smiles": "c1ccc(N2CCN(c3nc4cc5c(cc4s3)OCO5)CC2)cc1", "Potency": "inconclusive: 20 µM [activator, single point]"},
      {"smiles": "CCc1ccc(CNC(=O)C2CCN(c3nnc(-n4c(C)ccc4C)s3)CC2)cc1", "Potency": "inactive"},
      {"smiles": "Cc1ccc(-c2nc3ccccc3[nH]2)cc1NC(=O)c1ccc2c(c1)OCO2", "Potency": "inactive"},
      {"smiles": "CCOC(=O)c1ccc(NC(=O)c2cnccn2)cc1", "Potency": "inconclusive: 6.31 µM [activator, partial curve, poor fit]"},
      {"smiles": "O=C(Nc1nc(=O)n(C(=O)C2CC2)s1)c1ccccc1", "Potency": "inactive"},
      {"smiles": "O=C(c1cnn2c(C(F)(F)F)cc(-c3ccco3)nc12)N1CCc2ccccc2C1", "Potency": "inactive"},
      {"smiles": "CC(Nc1nc(N2CCNCC2)nc2ccccc12)c1ccccc1", "note": "(configuration not stated)", "Potency": "inactive"},
      {"smiles": "COc1ccc(OCC(=O)Nn2c(-c3ccc(C)cc3)nc3ccccc3c2=O)cc1", "Potency": "inactive"},
      {"smiles": "Brc1ccc(C2=Nn3c(nnc3-c3n[nH]c4c3CCC4)SC2)cc1", "Potency": "active: 22.4 µM"},
      {"smiles": "COc1cccc(-c2nc(-c3ccccn3)no2)c1OC", "Potency": "active: 12.6 µM"},
      {"smiles": "O=C(Nc1ccc2nc(-c3ccco3)c(-c3ccco3)nc2c1)NC1CC1", "Potency": "inactive"},
      {"smiles": "CCC(=O)Nc1ccc(C(=O)CSc2nc3ccccc3cc2CC)cc1", "Potency": "inconclusive: 14.1 µM [activator, partial curve]"},
      {"smiles": "CCOC(=O)C1C(=O)CC(C)(O)C(C(=O)OCC)C1c1ccc(NC(C)=O)cc1", "note": "(configuration not stated)", "Potency": "inconclusive: 35.5 µM [activator, single point]"},
      {"smiles": "COc1ccccc1/C=C/C(=O)NCc1ccccn1", "Potency": "inactive"},
      {"smiles": "COc1ccc(-n2nc(C(=O)NCC(=O)N3CCN(c4ccccn4)CC3)c3ccccc3c2=O)cc1", "Potency": "inconclusive: 35.5 µM [activator, partial curve]"},
      {"smiles": "On1c(-c2ccccc2)nc2ccc(Cl)cc21", "Potency": "active: 12.6 µM"},
      {"smiles": "CCc1cccc(C)c1N(C(=O)Cn1c(=O)[nH]c2ccccc21)C(C)COC", "note": "(configuration not stated)", "Potency": "inconclusive: 0.0355 µM [activator, full curve, poor fit]"},
      {"smiles": "COc1ccc(Cn2c(=O)[nH]c3cc(C(=O)NCCc4ccc(S(N)(=O)=O)cc4)ccc3c2=O)cc1", "Potency": "inactive"},
      {"smiles": "CCCCN=C1NN=C(c2cc3ccccc3o2)CS1", "Potency": "inconclusive: 17.8 µM [activator, partial curve, poor fit]"},
      {"smiles": "Cc1ccccc1OCC(=O)N(Cc1ccc(C(C)C)cc1)C1CCS(=O)(=O)C1", "note": "(configuration not stated)", "Potency": "inactive"},
      {"smiles": "COc1ccc(CC(=O)Nc2nnc(C(C)(C)C)s2)cc1OC", "Potency": "inactive"},
      {"smiles": "CCSc1nnc(N2C(=O)CC(c3ccsc3)C3=C2CC(C)(C)CC3=O)s1", "note": "(configuration not stated)", "Potency": "inconclusive: 0.794 µM [activator, full curve, poor fit]"},
      {"smiles": "CCN(Cc1ccccc1)c1ccc(N=Nc2nn(C)c(C)c2[N+](=O)[O-])cc1", "Potency": "inconclusive: 12.6 µM [activator, single point]"},
      {"smiles": "O=C(Nc1ccccc1)Nc1nnc(-c2ccccc2)o1", "Potency": "inactive"},
      {"smiles": "COc1cccc(CNCCSc2nnnn2C)c1OCc1ccc(Cl)cc1", "Potency": "inactive"},
      {"smiles": "O=C(Nc1ccc(N2CCN(C(=O)c3ccc(Cl)cc3)CC2)cc1)c1cc2ccccc2o1", "Potency": "inactive"},
      {"smiles": "CCC(=O)Nc1ccc(-c2csc(C)n2)cc1", "Potency": "inconclusive: 12.6 µM [activator, partial curve]"},
      {"smiles": "CCOC(=O)C1CCN(c2c(NCc3ccc(C(=O)NCCC(C)C)cc3)c(=O)c2=O)CC1", "Potency": "inconclusive: 4.47 µM [activator, partial curve, poor fit]"},
      {"smiles": "O=c1c2ccccc2nc2ccccn12", "Potency": "inconclusive: 14.1 µM [activator, single point]"},
      {"smiles": "Cc1ccc(-c2cc(=O)c3cc(C)ccc3[nH]2)cc1", "Potency": "active: 2.24 µM"},
      {"smiles": "Cc1sc2nc3c4ccccc4c(NCc4ccco4)nn3c(=O)c2c1C", "Potency": "active: 10 µM"},
      {"smiles": "Cn1c(SCc2ccc(F)cc2)nc2ccc(C(=O)NCc3ccccc3)cc21", "Potency": "inconclusive: 25.1 µM [activator, partial curve]"},
      {"smiles": "Oc1ccc(N=Nc2n[nH]c(-c3ccccc3)n2)cc1", "Potency": "inconclusive: 1 µM [activator, single point]"},
      {"smiles": "Cc1cnc(NC(=O)COc2ccccc2Cl)s1", "Potency": "active: 0.794 µM"},
      {"smiles": "O=C(N=Nc1c(O)n(Cc2ccccc2)c2ccccc12)c1ccc(O)cc1", "Potency": "inconclusive: 31.6 µM [activator, single point]"},
      {"smiles": "Cc1cc(C2(c3ccc(O)c(C)c3)OC(=O)c3ccccc32)ccc1O", "Potency": "inconclusive: 0.0224 µM [activator, full curve, poor fit]"},
      {"smiles": "C=CCn1c(C)cc(C(=O)COC(=O)CNC(=O)c2ccccc2)c1C", "Potency": "inactive"},
      {"smiles": "Clc1ccc(-c2cc(CSc3ccccc3)on2)cc1", "Potency": "active: 12.6 µM"},
      {"smiles": "COc1ccc(-n2c(=O)c(C)nc3cnc(Oc4ccccc4)nc32)cc1", "Potency": "inactive"},
      {"smiles": "O=C(N/N=C/c1ccc[nH]1)c1sc2ccccc2c1Cl", "Potency": "inactive"},
      {"smiles": "CCOC(=O)CC1=C(C(=O)OCC)C(c2ccc(OC)c(OC)c2)C(C#N)=C(N)O1", "note": "(configuration not stated)", "Potency": "inconclusive: 2.24 µM [activator, full curve]"},
      {"smiles": "CC1(C)C2CCC1(CS(=O)(=O)N1CCCc3ccccc31)C(=O)C2", "note": "(configuration not stated)", "Potency": "inconclusive: 0.0316 µM [activator, full curve, poor fit]"},
      {"smiles": "Cc1ccc(NC(=O)c2onc(C)c2Cl)cc1", "Potency": "active: 14.1 µM"},
      {"smiles": "CCC(=O)Nc1cccc(-c2nc3ccccc3o2)c1", "Potency": "inactive"},
      {"smiles": "CC(=O)Nc1cccc(OCC(=O)Nc2ccc(F)cc2)c1", "Potency": "inconclusive: 4.47 µM [activator, full curve]"},
      {"smiles": "O=C(N/N=C/C1C(c2ccccc2)C1(Cl)Cl)c1cccc(Br)c1", "note": "(configuration not stated)", "Potency": "inconclusive: 35.5 µM [activator, single point]"},
      {"smiles": "COc1ccc(C(=O)Cc2ccc(OC)c(OC)c2)cc1", "Potency": "inactive"},
      {"smiles": "CC(=O)c1c(C)nc(-c2ccc(Cl)cc2)nc1N", "Potency": "active: 10 µM"},
      {"smiles": "Cc1ccn2c(Nc3ccccc3C)c(-c3ccccc3)nc2c1", "Potency": "inconclusive: 31.6 µM [activator, single point]"},
      {"smiles": "COc1ccc(S(=O)(=O)N2CCC(C(=O)NC3CC3)CC2)cc1Cl", "Potency": "inconclusive: 35.5 µM [activator, partial curve, poor fit]"},
      {"smiles": "Cc1cc(C(=O)Nc2c(C)nn(Cc3c(Cl)cccc3Cl)c2C)no1", "Potency": "inconclusive: 35.5 µM [activator, single point]"},
      {"smiles": "O=C(O)CCSc1ccc2ccccc2n1", "Potency": "inactive"},
      {"smiles": "COc1ccc(-c2ccc(SCC(=O)c3cccs3)nn2)cc1OC", "Potency": "inconclusive: 5.01 µM [activator, full curve, poor fit]"},
      {"smiles": "Cc1cccc2cc(C(c3nnnn3CC3CCCO3)N3CCCC4(CCCCC4)C3)c(=O)[nH]c12", "note": "(configuration not stated)", "Potency": "inconclusive: 0.0089 µM [activator, full curve]"},
      {"smiles": "O=C(COC(=O)[C@H](Cc1c[nH]c2ccccc12)NC(=O)c1cccs1)NCc1ccccc1", "Potency": "inactive"},
      {"smiles": "O=C(Cn1c(=O)n(-c2ccccc2)c(=O)c2sc3ccccc3c21)NC1CCCC1", "Potency": "inactive"},
      {"smiles": "N#CCCCSc1nnnn1-c1cc(C(F)(F)F)cc(C(F)(F)F)c1", "Potency": "inactive"},
      {"smiles": "COc1ccc(Nc2c3c(c(C#N)c4nc5ccccc5n24)CCC3)cc1", "Potency": "inconclusive: 35.5 µM [activator, single point]"},
      {"smiles": "CCCOC(=O)c1cc(-c2ccc(C=O)o2)ccc1Cl", "Potency": "inconclusive: 15.8 µM [activator, partial curve, poor fit]"},
      {"smiles": "CC[C@@H](Nc1ncnc2nc[nH]c12)C(=O)O", "Potency": "inconclusive: 3.16 µM [activator, single point]"},
      {"smiles": "CS(=O)(=O)N(CC(=O)N1CCOCC1)c1ccc2c3c(cccc13)CC2", "Potency": "inconclusive: 0.0032 µM [activator, full curve, poor fit]"},
      {"smiles": "COc1cccc(CNC(=O)CN2C(=O)CSc3ccc(S(=O)(=O)N4CCCC4)cc32)c1", "Potency": "inactive"},
      {"smiles": "CCOC(=O)c1[nH]c2ccc(C)cc2c1N", "Potency": "active: 11.2 µM"},
      {"smiles": "CCc1ccc(NC(=O)CSc2ccccn2)cc1", "Potency": "inactive"},
      {"smiles": "Cc1nnc(SCC2=C(C(=O)O)N3C(=O)C(NC(=O)Cn4cnnn4)[C@@H]3SC2)s1", "note": "(some centres not stated)", "Potency": "inactive"},
      {"smiles": "COC(=O)c1sccc1NC(=O)NC1CCCCC1", "Potency": "inconclusive: 0.005 µM [activator, full curve, poor fit]"},
      {"smiles": "Cc1ccc(OCC(=O)Nc2ccccc2Sc2ccccc2)c([N+](=O)[O-])n1", "Potency": "inconclusive: 0.398 µM [activator, partial curve]"},
      {"smiles": "Cc1ccnc(NC(=O)Nc2ccc(F)cc2)c1", "Potency": "active: 12.6 µM"},
      {"smiles": "CCCCOc1ccc(-c2nnn(CC(=O)NCc3ccco3)n2)cc1", "Potency": "inconclusive: 15.8 µM [activator, single point]"}
    ]}
  ]
}
